Data as given in the supplement of paper PMC10126150.
Sequences with one replicate were seen in a single cluster, so their values are uncertain.

System: ATP
Test: switch fluorescence ratio, 500 uM ATP over buffer (Cy3 cluster intensity, sum of 5 cycles each) (fold (ratio)); higher = stronger signal-on switching upon ATP binding; sequences stand for … in TCGTCGGCAGCGTCAGATGTGTATAAGAGACAGTTTTTTTTTTTTTTTTTTTTTTTTT…TC
Conditions: aptamer strand: ATP DNA aptamer (quencher-CACCTGGGGGAGTATTGCGGAGGAAGG + anchor), 100 nM annealed; ATP concentration: 500 uM; one replicate
In short: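 Clusters with intensities outside 100-1000 RFU were excluded. The remaining Cy3-labelled switching-strand clusters on a modified Illumina MiSeq flow-cell had been annealed to 100 nM quencher-labelled ATP aptamer and imaged in selection buffer, then after 15 min with 500 uM ATP at 22 °C, for five cycles separated by NaOH stripping and re-annealing. The fluorescence ratio, averaged per switch-domain sequence, is each cluster's summed target-cycle Cy3 intensity over its summed buffer-cycle Cy3 intensity.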
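Further: ATP exposure 15 min at 22 °C before imaging.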

| Sequence | switch fluorescence ratio |
| --- | --- |
| CATGCGCGTC | 1.12 |
| CGGTTCGTCC | 0.996 |
| CTTGATCTAA | 1.01 |
| ACACTGTGAA | 1.05 |
| ATGACTTGA | 1.03 |
| GGCACGGTGA | 1.03 |
| AACGCGGGA | 1.04 |
| TAATCAGAA | 0.991 |
| AAAAGGTATT | 0.99 |
| GGGAGCCTAG | 1.03 |
| GGTGGTATCG | 1.03 |
| CATGAACGAT | 0.972 |
| AGTTAGCTGA | 1.02 |
| TAACCCGAAA | 1.17 |
| AGAAACGCAC | 1.73 |
| CGTCACGTTC | 1.01 |
| CTTCGGCATT | 1.84 |
| TCAATAGATA | 0.985 |
| GACACGAAT | 1.05 |
| TCTTTGGGTA | 0.99 |
| GTAGTCGCAG | 0.991 |
| GACTTAATGA | 1.01 |
| CGAGGAGGCG | 0.932 |

| Sequence | switch fluorescence ratio |
| --- | --- |
| CTGAGTGTGT | 0.989 |
| TCGCTCTCGC | 1.04 |
| ACAAAGTCAT | 1 |
| GATGCACTGT | 1.04 |
| ATGCGCAGTC | 1.21 |
| TCTCGCTGCA | 0.981 |
| TTTCGGTAAG | 0.998 |
| GCGATGCCGA | 0.967 |
| CTATAGCTGT | 1.1 |
| TTCCGACAGG | 1.14 |
| CATTACCAGA | 1.04 |
| CGCCGTGGGG | 1.04 |
| GCACTTATGT | 0.996 |
| AGCACTGTG | 1.01 |
| AGGGCGACCC | 1.03 |
| CATCAGAGTG | 1.05 |
| TGAGGGTGAT | 0.936 |
| TCTATTAGCA | 1.02 |
| ACGTATGGCC | 1.08 |
| GGTAGAGCTC | 1.03 |
| TATGTAAGCG | 0.99 |
| CACGGTATAG | 1.19 |
| GAACCAAGTA | 0.985 |

| Sequence | switch fluorescence ratio |
| --- | --- |
| CTAGGCCATC | 1.05 |
| TTGTAGGTGT | 1.07 |
| CAATGAGCAA | 1.86 |
| GTGGCATCGC | 1.01 |
| CTATTAGGTC | 0.986 |
| GGCACATATA | 1 |
| GTAATCTCCT | 1.21 |
| TGAGAGCTTA | 0.954 |
| TCTATAAGAG | 0.965 |
| TTCGTGGAGC | 0.978 |
| TTAGAAATTG | 1.07 |
| GGGGTCTAAC | 0.986 |
| CGGTGCAGGA | 1.09 |
| GAAGCGAGGA | 1.11 |
| AGCGAAGTTT | 1.02 |
| TCATGAGTCG | 1 |
| ATAAGTCCAG | 1.01 |
| CACGGTATGG | 1.11 |
| CGTACGAAGA | 1.01 |
| GTGATCGCC | 0.996 |
| CGGCTGTCGT | 1.02 |
| ATACTGCAGC | 1.02 |
| TAATAGCCCC | 1.08 |

| Sequence | switch fluorescence ratio |
| --- | --- |
| ATTTATTCGT | 0.974 |
| CAGTGCGGAA | 1.07 |
| TCGCGGCCCT | 1.02 |
| GCGGGTAGGC | 0.983 |
| GCGTTGTTGA | 0.987 |
| TGTGTAACGA | 0.983 |
| AGGACGTGCA | 1.02 |
| GTCAGTCTTT | 1.14 |
| TACCATATG | 1.05 |
| ACTTATATAC | 1.25 |
| AGAGTCTGAT | 0.98 |
| AAACTCATTC | 1.03 |
| TTCCTGCAAT | 4.3 |
| GTGCAGAAGT | 0.977 |
| ATGAAACTTG | 1.04 |
| CTAGCGCTTG | 1.02 |
| TTCCAGGTAT | 1.06 |
| TGGGCGGTCC | 1.01 |
| AAGATGGGAA | 1.04 |
| GCGACGTCGA | 0.991 |
| CGCCCAAATT | 1.06 |
| GTCGTCGTCT | 0.985 |
| ACGGCCTGTG | 1.01 |

| Sequence | switch fluorescence ratio |
| --- | --- |
| GATGCTCAGG | 1.06 |
| CGGTCATACG | 0.999 |
| GGCCTTGTT | 0.996 |
| GGTTATCAAG | 1.01 |
| TGTCTTAAAC | 1.01 |
| GGTAAATCGC | 1.03 |
| CGAGACGCGG | 0.959 |
| GATGTTGAAA | 0.989 |
| AGATAGTACC | 1.04 |
| TAGTTTCATC | 1 |
| ATCTGGGAAC | 1.01 |
| TCGAGGCTTT | 1.16 |
| CTAAGTCTCG | 1 |
| TACACCGGTT | 1.05 |
| AGACCTTGGA | 1.04 |
| GTAGGGTGGG | 0.988 |
| CGTAAGTGAG | 1.01 |
| CTACCTTTAG | 0.996 |
| GGTGTGAATG | 0.965 |
| GTAGGAGACA | 1.01 |
| GCGATATTGA | 0.975 |
| GAAAAACATA | 0.999 |
| GGGGTTGTAT | 1.02 |

| Sequence | switch fluorescence ratio |
| --- | --- |
| GCAGTGCAGC | 0.972 |
| CCTTGGGCTG | 1.02 |
| CCCGAAATCG | 1.35 |
| GTTTGTGCAA | 1.02 |
| GATGCAGGTA | 1.01 |
| TGTGTTCAG | 0.965 |
| CTGATGTTTA | 0.997 |
| TTCGACTTTG | 0.968 |
| GCCATTCAGA | 1.02 |
| ATGATGCGAG | 0.963 |
| GATCTATTGG | 1.01 |
| ATTTAGACA | 1 |
| TAGTTTTTT | 1.01 |
| GGAAGCGCAT | 1.06 |
| ATCGGTACCC | 1.02 |
| TCGAGATGAG | 0.947 |
| TTTACGAGGA | 1.02 |
| CGAAAGCGCA | 1.02 |
| AAACAATAAA | 0.97 |
| AAGTTTTCGA | 0.993 |
| CATCGACACC | 1.06 |
| TTCTAACTAA | 1.12 |
| GTGTTGGACA | 1.03 |

| Sequence | switch fluorescence ratio |
| --- | --- |
| GCATCTGAAA | 1.02 |
| TATTTAGTG | 0.982 |
| AGATGAACCG | 1.1 |
| GTGGACCGGG | 1.01 |
| AACGTGACAC | 1.22 |
| GAGGTTCATG | 1 |
| GGGGACCCGG | 1.05 |
| AATGAGTGCG | 0.989 |
| ACACCCAGTT | 1.26 |
| ACTGATATTT | 1.03 |
| ATTACAAATC | 1.04 |
| TTGCGCTAAA | 1.02 |
| GGATTGCCCG | 1.01 |
| TCCAATGAGT | 0.998 |
| GGGCTTCGAA | 1.03 |
| CAAAGCTAGG | 1.01 |
| TTCACTGGGT | 1.01 |
| CACATTTCCG | 1.11 |
| TCTACTCCGG | 1.26 |
